Experimental findings from paper PMC5290273 (Nature Communications, 2017) are described below.

The target in the test is T1, FLAG-AFF4 Δ970–1,163 E322H (human) (UniProt Q9UHB7).
T1 sequence: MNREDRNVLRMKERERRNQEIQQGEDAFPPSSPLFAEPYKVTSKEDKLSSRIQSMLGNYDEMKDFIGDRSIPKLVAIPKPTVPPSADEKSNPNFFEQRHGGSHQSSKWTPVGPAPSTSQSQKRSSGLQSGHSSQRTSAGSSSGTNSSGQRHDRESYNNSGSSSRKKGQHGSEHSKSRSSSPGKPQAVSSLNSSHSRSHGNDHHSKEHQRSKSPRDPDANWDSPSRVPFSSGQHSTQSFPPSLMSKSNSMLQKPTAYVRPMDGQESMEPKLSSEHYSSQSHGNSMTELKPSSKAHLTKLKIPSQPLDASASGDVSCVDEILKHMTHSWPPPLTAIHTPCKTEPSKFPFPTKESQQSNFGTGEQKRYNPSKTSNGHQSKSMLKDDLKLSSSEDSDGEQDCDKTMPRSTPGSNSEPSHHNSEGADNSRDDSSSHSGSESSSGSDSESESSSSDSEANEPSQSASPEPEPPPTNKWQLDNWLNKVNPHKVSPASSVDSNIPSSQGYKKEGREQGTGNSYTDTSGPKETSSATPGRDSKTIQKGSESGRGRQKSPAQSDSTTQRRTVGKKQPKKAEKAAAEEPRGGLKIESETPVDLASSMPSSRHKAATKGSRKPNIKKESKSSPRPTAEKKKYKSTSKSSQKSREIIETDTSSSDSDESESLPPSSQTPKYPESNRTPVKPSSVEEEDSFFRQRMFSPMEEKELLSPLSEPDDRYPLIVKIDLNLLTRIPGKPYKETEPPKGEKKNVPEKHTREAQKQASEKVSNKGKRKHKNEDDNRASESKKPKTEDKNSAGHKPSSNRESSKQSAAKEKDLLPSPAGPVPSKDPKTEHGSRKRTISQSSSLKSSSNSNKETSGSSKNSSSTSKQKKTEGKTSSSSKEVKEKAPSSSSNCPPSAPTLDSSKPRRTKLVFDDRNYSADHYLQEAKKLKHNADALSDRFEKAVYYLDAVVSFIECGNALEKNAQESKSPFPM
Nature of the test: co-IP.

Results are given in words; binding and its absence hold for the method and conditions named. Binding seen in cells or lysates may run through a third protein. Sequences can lack the tags named with a protein.

B1: ELL1, endogenous (protein, UniProt P55199 1-621)
chain: MAALKEDRSYGLSCGRVSDGSKVSVFHVKLTDSALRAFESYRARQDSVSLRPSIRFQGSQGHISIPQPDCPAEARTFSFYLSNIGRDNPQGSFDCIQQYVSSHGEVHLDCLGSIQDKITVCATDDSYQKARQSMAQAEEETRSRSAIVIKAGGRYLGKKVQFRKPAPGATDAVPSRKRATPINLASAIRKSGASAVSGGSGVSQRPFRDRVLHLLALRPYRKAELLLRLQKDGLTQADKDALDGLLQQVANMSAKDGTCTLQDCMYKDVQKDWPGYSEGDQQLLKRVLVRKLCQPQSTGSLLGDPAASSPPGERGRSASPPQKRLQPPDFIDPLANKKPRISHFTQRAQPAVNGKLGVPNGREALLPTPGPPASTDTLSSSTHLPPRLEPPRAHDPLADVSNDLGHSGRDCEHGEAAAPAPTVRLGLPLLTDCAQPSRPHGSPSRSKPKKKSKKHKDKERAAEDKPRAQLPDCAPATHATPGAPADTPGLNGTCSVSSVPTSTSETPDYLLKYAAISSSEQRQSYKNDFNAEYSEYRDLHARIERITRRFTQLDAQLRQLSQGSEEYETTRGQILQEYRKIKKTNTNYSQEKHRCEYLHSKLAHIKRLIAEYDQRQLQAWP
In the case of B1, the binding entry is “no binding”.
